Laboratory results as given in the supplement of paper PMC11417369.
± gives the standard deviation of the averaged measurements. The list shows a part of the results.

system: PfAP2-EXP AP2 domain (GST-tagged); experiment: gcPBM binding intensity (ln(normalized median fluorescence intensity)); higher = stronger DNA binding
How it was run: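 Using an Agilent 4 × 180k array, primer-extended double-stranded 36-bp intergenic genomic probes and negative controls were exposed for 1 h to GST-fused P. falciparum DNA-binding domains expressed in E. coli. Binding was carried out in 1× PBS with 1% milk, 0.2 mg/ml BSA, 0.5% salmon testes DNA and 0.03% Triton X-100, and protein was detected with Alexa488 anti-GST antibody and a 488 nm scan. Binding intensity is the highest Masliner-normalised natural-log median intensity across replicate spots of either probe orientation.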

Sequence | gcPBM binding intensity (ln)
TATATGTTTTAAAAGTGTACTTTAGTTTCAATTTTT [XGTACX_site4269] | 8.37 ± 0.38
AATAACCACCAACACACACACATATATATATATATA [CACACA_site3540] | 10.2 ± 0.45
ATAATAATAATAAAAAGTACATTTAATTATATAGAA [XGTACX_site7742] | 8.36 ± 0.28
AAAAATTTAATGAAATGTACATATATGTTATTAATA [XGTACX_site6091] | 8.61 ± 0.45
ACATCAAGAATTATTAAGAATACGGATAGATAAAAT [GTGCAC_negctrl_site261] | 8.65 ± 0.29
ATACATATTACATGTTGTACTCCAACAAAAATGCCC [XGTACX_site3201] | 8.89 ± 0.35
TTAATTTCATTTTCTACACACCTATCCTTTTTTTTT [CACACA_site772] | 8.65 ± 0.59
TAAATGCACATATACACACACCCAATTTTAAGTTTT [CACACA_site7428] | 8.52 ± 0.36
TTTCAAAATGTGTAAAATAAAAATAATATCATTACA [TGCATGCA_negctrl_site521] | 8.38 ± 0.26
ATGTGATATAAGTACACACACATATGTATATAGAAT [CACACA_site1823] | 8.79 ± 0.36
AATATAGATATAACCACACACATACATCTAATTCTA [CACACA_site1760] | 8.56 ± 0.54
TTTTGTTTTGTTTTGTTTTGTTTTGTTTTATTTTAT [GTGCAC_negctrl_site383] | 8.56 ± 0.57
AATGTATATATGTAATGTACATATGTAATGTATATA [XGTACX_site6509] | 8.62 ± 0.46
TGTTTCTTATTTTTTTCACACACTAAACATTTCAAA [CACACA_site2218] | 8.92 ± 0.48
GAAAAGAACAAGAGCATGCACTTAATAAGAATAATA | 9.53 ± 0.3
AAAAAAAGATTATACACACACATATATAAACCTACA [CACACA_site710] | 8.47 ± 0.31
TTTTTTTTTTTTGAAACATGCATTGTTTTATTCTTA [TGCATGCA_site15] | 8.69 ± 0.35
TCTATACCTATTCTTACACACATATGTATATATATA [CACACA_site563] | 9.07 ± 0.21
ATATATATATAATCAAGTACACAGTAATAAAAAGAA [XGTACX_site1070] | 9.51 ± 0.071
ATTGTGTTCATCAGCACACACAACATCATGCAATAA [CACACA_site6960] | 8.47 ± 0.44
AATAATAACTGTAGGTGTACGTAAAAAAAAAATTAT [XGTACX_site3133] | 8.95 ± 0.45
TTTTTTTTTTTTTGTTGTACAATACTTAATCATTAT [XGTACX_site3422] | 8.64 ± 0.57
CATATGTCTTGAGATCGTACGTTATTTTTTTTATTT [XGTACX_site1381] | 8.95 ± 0.52

Sequence | gcPBM binding intensity (ln)
AAGAATATTAATATAAATAAGTAAATAAATAAATAA [CACACA_negctrl_site417] | 8.63 ± 0.4
TGGTAAATTTACCGTTGTACATTCATTTATAACATT [XGTACX_site8910] | 8.68 ± 0.42
AAAAATTATATATATATATATATATATATATGTATA [GTGCAC_negctrl_site488] | 8.7 ± 0.028
TATAAATTTAAAATGACACACACTAAAATTATTTAA [CACACA_site1239] | 8.36 ± 0.42
GTATTATTATTATGCACACAAAAATATTTATACATA [CACACA_site3656] | 8.725 ± 0.007
TATATATATATATATATATATATATATATATGTATA [TGCATGCA_negctrl_site17] | 9.98 ± 0.38
ATTAAAACAAAATGTACACACATATCATTTAATGAC [CACACA_site6543] | 8.48 ± 0.34
CATTATTATTAACATACACACGTGTTAAATACACCC [CACACA_site6118] | 8.91 ± 0.6
TATGAAAAGATATATACACACATAATAAAGGTATAT [CACACA_site7713] | 8.63 ± 0.42
ACATACACATATACATGTACATATATATATATATAT [XGTACX_site5082] | 10.2 ± 0.2
CTATTTCAATTTAGTGCACACATTTTAATTTATAAG [CACACA_site2040] | 9.4 ± 0.65
TTTTAATCTTAATTATGTACATATAAAATGTGTATA [XGTACX_site7382] | 8.26 ± 0.36
ATATATGTATTTAATACACACAAAACTTTCATTCCA [CACACA_site3531] | 8.43 ± 0.31
ATATTCATTAACCACACACACAAAAAAAATAAAATT [CACACA_site3801] | 8.73 ± 0.48
TTTTTAGAAAGACATGCATGTAATAAAAATAAATAA [TGCATGCA_site685] | 9.54 ± 0.53
ATACATATATGCTTCTGTACACATAATTTATAAAAA [XGTACX_site7000] | 8.96 ± 0.3
GCTATTAATTTATAAGCACACAATATAAATATATAT [CACACA_site2251] | 8.39 ± 0.26
ATTACATGATATATCACACACACATATAGATATATA [CACACA_site7352] | 8.65 ± 0.44
AATTTTGTTAAAAGGACACACAATTCAATATATTAA [CACACA_site647] | 8.52 ± 0.52
TACACGTTCTACATTTGTACTTAATTTATACATAAG [XGTACX_site1579] | 8.91 ± 0.45
TACGTCTTTTTTTTGGTGCATAATTTTTTTGTACAA | 9.05 ± 0.099
TATATTAAAATATTCACACACTAACGTAAATCATTG [CACACA_site5520] | 8.35 ± 0.42
ATTTATTTAAACAAATCACACACAAATATATATACA [CACACA_site8622] | 8.69 ± 0.4

Sequence | gcPBM binding intensity (ln)
TATGTCGACATTTAAAGTACAAAAAAAAAAAAAAAA [XGTACX_site8985] | 8.11 ± 0.51
TAAAAATCCACAAGCACACAAATGTACATATATATA [CACACA_site2462] | 8.71 ± 0.24
TATATATGTGTTATATACCCTTTTTTATATATTAAT [XGTACX_negctrl_site313] | 8.54 ± 0.53
CATACATAGATATATACACACATACCTATAAATACA [CACACA_site6513] | 8.53 ± 0.43
TATAAAAAGCATAACACACACATGTCAATATATATA [CACACA_site1111] | 8.8 ± 0.42
ATAGAACAGAAAAGGCGTACAATAATATGTAAACAA [XGTACX_site2828] | 9.02 ± 0.38
AAAAAAAAAATATGTACACACATATATAATACATAA [CACACA_site1639] | 8.49 ± 0.38
TTAAGTCCGTTAACAGTGCATTTTTTCTTTTATGTA [GTGCAC_site9867] | 8.79 ± 0.39
AGAAAAGAGAAAAGTAGTACAAAGGATCATTTAAAA [XGTACX_site5294] | 8.72 ± 0.67
TAATGAAAAAATAAAAGAATAAATAAATAAATAAAT [TGCATGCA_negctrl_site130] | 8.77 ± 0.3
ATTAAAAAAATATAAACACACAAAAAAAAAATATAC [CACACA_site1100] | 8.8 ± 0.58
AATTTGAAATATGTGGTGCAGTTATATAATATGTTT [GTGCAC_site9885] | 8.8 ± 0.29
ATATTTTCCCTTGTTTTACACACGTGCTGATATGAG [CACACA_site8672] | 9.37 ± 0.6
ATATAGAATAAAACTATACACACCTATATTTAAACA [CACACA_site1902] | 8.62 ± 0.37
TGTAGTCTGGAGAAAAGTACACAGTATCTGGTAACC [XGTACX_site2033] | 8.46 ± 0.32
TATATTAATAAAGGTACTACACGGAAATGGAAATAT [XGTACX_site7760] | 9.22 ± 0.53
CTTGTATAGAAACACACACACACTTTCTTTTTTTAA [CACACA_site1964] | 8.56 ± 0.4
ATATAAAAAAATAATAAATAAATAAAAAGATTTCTT [XGTACX_negctrl_site110] | 8.2 ± 0.4
CACATTAATTTTTGGGTGCACTTGGGAAATTTTGGT | 9.27 ± 0.63
ATATATATTATATATATATATATATATATATATATA [CACACA_negctrl_site493] | 9.85 ± 0.33
ATAATATGAAAACACACACACACACCCAAAAAAAAA [CACACA_site2011] | 8.7 ± 0.52
AGGATATAATACCATACACACATTTATAAAATAACA [CACACA_site1930] | 8.62 ± 0.36
AACAAATACGAACACACACACACACTAAAAAAAAAA [CACACA_site6386] | 8.63 ± 0.59

Sequence | gcPBM binding intensity (ln)
TGTAATCAAAAAAATAGTACATAAATTGTGTATACT [XGTACX_site5908] | 8.59 ± 0.39
TAATAAATAAATGACACACACACACGCAAAAAAAAA [CACACA_site7275] | 8.86 ± 0.61
ATACCTACATACATACGTACATATATATATATAATG [XGTACX_site234] | 9.1 ± 0.47
TAGATTTTTATGCGTGCACACATTTAAAAAAAAAAC [CACACA_site3421] | 8.69 ± 0.35
TTTTAATAAATTCAAAACATAAAAAGGAAAAAAAAA [XGTACX_negctrl_site471] | 8.62 ± 0.73
AAATATAATAACATAACACACACATGTATTTATAGG [CACACA_site8009] | 8.46 ± 0.52
TATAATGAGAAGATATAATATATAGGGGGTAATTCT [GTGCAC_negctrl_site228] | 9.29 ± 0.54
ATATATATATATATATGTACTTATTTGTATAAATAC [XGTACX_site8031] | 10.1 ± 0.28
TTTTTTTCATAAGAAGCACACAAAAAATGATAGAGA [CACACA_site8401] | 8.91 ± 0.41
ATTCTTTATTATTCGCCACACACATATATATATATA [CACACA_site9009] | 10.2 ± 0.28
TATTGGAAAATTAGAAGTACTTTCATATATTAGACT [XGTACX_site4503] | 8.42 ± 0.3
TTTTTATTATTCCATAGTACAGAAAAAATGATATAT [XGTACX_site3431] | 8.45 ± 0.35
ATTAAATATGTCAAGTGTACAAAATGTAAAAAAAAA [XGTACX_site4119] | 8.76 ± 0.42
TTATATATACCTAAGACACACACATATATATATATA [CACACA_site8153] | 10 ± 0.27
TAAATATATATATACACACACACCAAAGCAATAGAT [CACACA_site2940] | 9.2 ± 0.45
GCCATTGTACCATCCACACACATATAAATATGTATA [CACACA_site7303] | 9.16 ± 0.32
TGTTAATAGAAATACGTGCACACTAAAGGGAAAACA [CACACA_site1485] | 9.23 ± 0.35
TATGAAGAAAAGAATTGTACGATGTTTATTTTGTAT [XGTACX_site8614] | 8.4 ± 0.31
TTGTTATCTACCTGTAGTACATATATTATGTAATAT [XGTACX_site735] | 8.55 ± 0.28
ACAGTATCAATATGGATAAAAATGTCCATATGCCTG [TGCATGCA_negctrl_site482] | 8.2 ± 0.45
